Only a part is listed here, and it is no random draw. The list includes weakly bound sequences.

Common to all, as to experiment: protein-binding microarray (PBM)
Conditions in all cases: PBM: ~300 nM protein, 6 mM HEPES pH 7.8, 80 mM KCl, 0.5 mM EDTA, 0.5 mM EGTA, 6% glycerol, 35 ng/ul poly-dIdC, 1% milk, 1 h, room temperature; Ap Aiptasia and Nv Nematostella (sea anemones) / Co Capsaspora / Aq Amphimedon (sponge) / Dm Drosophila / Hu human; RHD is the Rel homology domain; high values mean tight binding; most listed sequences are background and not binding sites; double strand, one strand shown

The target in one assay is T1, GST-Ap-NF-kB RHD (UniProt A0A913YAJ5).
T1 sequence: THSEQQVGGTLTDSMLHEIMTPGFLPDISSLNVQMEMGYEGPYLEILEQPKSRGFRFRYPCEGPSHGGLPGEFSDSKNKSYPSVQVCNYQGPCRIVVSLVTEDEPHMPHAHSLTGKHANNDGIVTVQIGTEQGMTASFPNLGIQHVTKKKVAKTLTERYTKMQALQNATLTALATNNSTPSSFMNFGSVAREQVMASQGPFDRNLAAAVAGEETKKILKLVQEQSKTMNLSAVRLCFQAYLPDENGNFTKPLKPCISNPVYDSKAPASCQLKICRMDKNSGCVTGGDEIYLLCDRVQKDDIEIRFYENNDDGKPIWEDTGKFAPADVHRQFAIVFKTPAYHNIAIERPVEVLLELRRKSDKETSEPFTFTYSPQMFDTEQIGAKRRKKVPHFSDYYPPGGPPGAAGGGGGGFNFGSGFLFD

The target in assay [1] is T2, GST-Nv-NF-kB (Cys allele) (UniProt E5G601).
T2 sequence: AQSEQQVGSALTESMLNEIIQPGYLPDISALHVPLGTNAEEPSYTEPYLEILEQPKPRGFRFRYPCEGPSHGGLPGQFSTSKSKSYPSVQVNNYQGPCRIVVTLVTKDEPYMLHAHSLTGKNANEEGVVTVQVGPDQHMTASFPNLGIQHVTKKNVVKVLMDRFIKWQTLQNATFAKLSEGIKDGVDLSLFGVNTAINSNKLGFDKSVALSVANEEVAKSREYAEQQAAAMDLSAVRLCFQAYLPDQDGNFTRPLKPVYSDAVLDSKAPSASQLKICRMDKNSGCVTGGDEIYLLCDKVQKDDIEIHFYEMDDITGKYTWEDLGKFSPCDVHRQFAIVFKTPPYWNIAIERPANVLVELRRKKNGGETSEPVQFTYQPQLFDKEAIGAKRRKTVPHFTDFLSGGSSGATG

Another assay addresses T3, GST-Co-NF-kB (UniProt F1ARL5).
T3 sequence: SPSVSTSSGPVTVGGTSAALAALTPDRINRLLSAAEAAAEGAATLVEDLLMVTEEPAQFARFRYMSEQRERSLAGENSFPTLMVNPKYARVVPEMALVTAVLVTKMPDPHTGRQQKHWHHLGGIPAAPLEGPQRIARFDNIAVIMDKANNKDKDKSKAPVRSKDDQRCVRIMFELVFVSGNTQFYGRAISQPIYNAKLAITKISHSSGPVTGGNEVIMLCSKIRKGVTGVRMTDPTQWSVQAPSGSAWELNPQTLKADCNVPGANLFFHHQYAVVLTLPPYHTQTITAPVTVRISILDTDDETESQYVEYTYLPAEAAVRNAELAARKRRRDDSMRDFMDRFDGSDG

Another assay concerns the target T4, GST-Dm-Relish (UniProt Q94527).
T4 sequence: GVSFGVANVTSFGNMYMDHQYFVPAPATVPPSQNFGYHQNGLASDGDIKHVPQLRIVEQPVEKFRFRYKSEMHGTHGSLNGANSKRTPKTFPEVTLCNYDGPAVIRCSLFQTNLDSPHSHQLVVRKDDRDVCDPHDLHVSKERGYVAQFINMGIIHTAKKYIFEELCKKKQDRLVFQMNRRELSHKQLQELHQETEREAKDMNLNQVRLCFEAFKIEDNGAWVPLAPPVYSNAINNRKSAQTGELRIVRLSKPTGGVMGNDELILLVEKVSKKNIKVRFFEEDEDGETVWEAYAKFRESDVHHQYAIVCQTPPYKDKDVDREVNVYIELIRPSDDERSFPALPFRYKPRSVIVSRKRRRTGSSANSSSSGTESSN

The next assay concerns the target T5, GST-Aq-NF-kB (UniProt A9Y5G7).
T5 sequence: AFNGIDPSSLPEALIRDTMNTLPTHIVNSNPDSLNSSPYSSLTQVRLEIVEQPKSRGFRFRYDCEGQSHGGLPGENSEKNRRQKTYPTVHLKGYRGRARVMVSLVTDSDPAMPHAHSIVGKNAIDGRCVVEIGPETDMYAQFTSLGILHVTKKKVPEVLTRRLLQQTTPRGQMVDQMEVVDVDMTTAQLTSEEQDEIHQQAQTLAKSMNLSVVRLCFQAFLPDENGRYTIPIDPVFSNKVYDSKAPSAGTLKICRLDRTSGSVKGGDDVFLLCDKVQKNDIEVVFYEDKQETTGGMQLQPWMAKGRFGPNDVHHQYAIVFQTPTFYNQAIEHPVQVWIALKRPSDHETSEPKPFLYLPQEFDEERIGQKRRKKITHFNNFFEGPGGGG

In the case of “CCGATTAACATCAAACCATGCGGTGATGTTAATCGGGTCTTGATTCGCTTGACGCTGCTG”, the binding signal was 0.121 z-score with GST-Ap-NF-kB RHD; -0.593 z-score in assay [1]; -0.15 z-score with GST-Co-NF-kB; 0.513 z-score in the assay with GST-Dm-Relish; 0.298 z-score with GST-Aq-NF-kB.
On to “CCGATTAACATCATCAGTGGGCCTGATGTTAATCGGGTCTTGATTCGCTTGACGCTGCTG”, for which the binding signal with GST-Ap-NF-kB RHD is 0.213 z-score; in assay [1], -0.499 z-score; with GST-Co-NF-kB, -0.89 z-score; with GST-Dm-Relish, -0.45 z-score; with GST-Aq-NF-kB, 0.151 z-score.
On the same counts, the results for “CCGATTAACATCACAAGAATTCCTGATGTTAATCGGGTCTTGATTCGCTTGACGCTGCTG” are 0.193 z-score, 0.0834 z-score, -0.00652 z-score, 1.19 z-score and 0.657 z-score.
For “CCGATTAACATCAACCAACTTATTGATGTTAATCGGGTCTTGATTCGCTTGACGCTGCTG”, the binding signal is -0.7 z-score in the assay with GST-Ap-NF-kB RHD; 0.178 z-score in assay [1]; -0.614 z-score with GST-Co-NF-kB; -0.527 z-score with GST-Dm-Relish; -0.636 z-score with GST-Aq-NF-kB.
Regarding “CCGATTAACATCATAAGAGAGCATGATGTTAATCGGGTCTTGATTCGCTTGACGCTGCTG”, the binding signal was -0.248 z-score in the assay with GST-Ap-NF-kB RHD; 0.0693 z-score in assay [1]; -0.202 z-score with GST-Co-NF-kB; -0.623 z-score with GST-Dm-Relish; -0.397 z-score in the assay with GST-Aq-NF-kB.
On the same counts, the results for “CCGATTAACATCAACATGGAAAATGATGTTAATCGGGTCTTGATTCGCTTGACGCTGCTG” are -0.378 z-score, -0.248 z-score, 0.334 z-score, -0.0133 z-score and -0.303 z-score.
On the same counts, the results for “CCGATTAACATCAATCGATTGGGTGATGTTAATCGGGTCTTGATTCGCTTGACGCTGCTG” are 0.299 z-score, -1.15 z-score, 0.581 z-score, -0.225 z-score and 0.172 z-score.
On the same counts, the results for “CCGATTAACATCAATGCCCGAGTTGATGTTAATCGGGTCTTGATTCGCTTGACGCTGCTG” are -0.507 z-score, -0.00767 z-score, 0.0825 z-score, -0.449 z-score and -0.0293 z-score.
With “CCGATTAACATCACTCAAGGTTTTGATGTTAATCGGGTCTTGATTCGCTTGACGCTGCTG”, the binding signal in the assay with GST-Ap-NF-kB RHD is -0.095 z-score; in assay [1], -0.42 z-score; with GST-Co-NF-kB, -0.0699 z-score; in the assay with GST-Dm-Relish it was -0.479 z-score; in the assay with GST-Aq-NF-kB, -0.409 z-score.
For the sequence “CCGATTAACATCAGAAATATTCCTGATGTTAATCGGGTCTTGATTCGCTTGACGCTGCTG”, the binding signal in the assay with GST-Ap-NF-kB RHD is -0.206 z-score; in assay [1], 0.508 z-score; in the assay with GST-Co-NF-kB, -0.391 z-score; with GST-Dm-Relish, 0.315 z-score; in the assay with GST-Aq-NF-kB, 0.612 z-score.
In the case of “CCGATTAACATCAGGTCGGAGCCTGATGTTAATCGGGTCTTGATTCGCTTGACGCTGCTG”, the binding signal is -0.778 z-score with GST-Ap-NF-kB RHD; 0.297 z-score in assay [1]; -1 z-score with GST-Co-NF-kB; -0.335 z-score with GST-Dm-Relish; -0.72 z-score with GST-Aq-NF-kB.
“CCGATTAACATCATAGCTAGGCTTGATGTTAATCGGGTCTTGATTCGCTTGACGCTGCTG”: the binding signal is -1.05 z-score in the assay with GST-Ap-NF-kB RHD; -1.08 z-score in assay [1]; -0.952 z-score in the assay with GST-Co-NF-kB; -1.19 z-score with GST-Dm-Relish; -0.666 z-score with GST-Aq-NF-kB.
On the same counts, the results for “CCGATTAACATCAAGTGCCACGTTGATGTTAATCGGGTCTTGATTCGCTTGACGCTGCTG” are -0.414 z-score, 0.126 z-score, -0.412 z-score, -0.398 z-score and -0.519 z-score.
On the same counts, the results for “CCGATTAACATCAGGTCAACAAGTGATGTTAATCGGGTCTTGATTCGCTTGACGCTGCTG” are -0.456 z-score, -0.164 z-score, 0.139 z-score, -0.315 z-score and -0.348 z-score.
On the same counts, the results for “CCGATTAACATCAATCACCAGGATGATGTTAATCGGGTCTTGATTCGCTTGACGCTGCTG” are 0.189 z-score, -0.18 z-score, -0.184 z-score, -0.0218 z-score and -0.463 z-score.
